This assay has as its system Plasmodium falciparum. Nature of the assay: Primary screen in NF54 nanoGlo assay, in single point, at 2uM, 72h; a lower Z score goes with more inhibition. Format: functional, Erythrocyte. The note with it: timepoint 72 hour.

Each structure is given as a SMILES string. Several values for one entry are separate records, joined by “and”; a condition that tells them apart may be missing. Equal values may be shown once. The campaign covered roughly 150,000 compounds. About 540 (0.36%) showed an effect of 50% or more. The list shows a part of the results.

As usually defined, the % Inhibition is the relative decrease from the control value, in per cent.

As to `CCC(CC)CNCCc1cnn(C)c1C`, the “% Inhibition” value was -10% and the Z score was 1.38.
On to `CCCS(=O)(=O)N1C[C@@H]2C[C@H](C1)c1ccc(-c3ccc(OC)cc3)c(=O)n1C2`, for which the “% Inhibition” value is -1% and the Z score was 0.13.
Taken in the same sequence, the figures for `Cc1ncc(CNc2ccn(CC(F)F)n2)c(C)n1` were -11% and 1.52.
Taken in the same sequence, the figures for `CC(C)(C)C1CCC(N2CCC[C@H](O)C2)CC1` (some centres undefined) were -14% and 2.15.
With `CC(C)=CCN[C@@H](C)Cn1cc(C)cn1`, the “% Inhibition” value was -2% and the Z score was 0.31.
On to `C[C@H]1CN(C(=O)c2cccc3[nH]c(=O)oc23)CC2(CCC2)O1`, for which the “% Inhibition” value was determined as 9% and the Z score was -1.08.
As for `CCOC(Cn1cc(C(=O)NCCC2CCCCC2)nn1)OCC`, the “% Inhibition” value is on record as -17% and the Z score was 1.94.
For `COCc1cc(-c2c(C#N)c(N)nc3c2N2CCC3CC2)ccc1OC` the same measures were -4% and 0.5.
Taken in the same sequence, the figures for `CN1CC2(C1)CN(C(=O)Cc1ccccc1)C[C@@H]1C[C@@H](O)CN12` were -1% and 0.12.
Taken in the same sequence, the figures for `CC1CN2CCCC2CN1S(=O)(=O)c1cccnc1` (centres undefined) were -2% and 0.5.
Consider `CN1CCC[C@@]2(CCN(C(=O)c3ccc(OCC(F)F)nc3)C2)C1`, for which the “% Inhibition” value was found to be 0% and the Z score is given as -0.08.
`COc1cccc([C@H]2CN(c3ccnc(N)n3)[C@@H]3C4CCN(CC4)[C@H]23)c1`: the “% Inhibition” value was -1% and the Z score is reported as 0.16.
For `Cc1cc(CN2CCN(C(=O)Cc3n[nH]c(=O)c4ccccc34)CC2)on1` the same measures were -10% and 1.82.
With `CC(Cc1ccccc1Br)NC(C)c1cccnc1` (centres undefined), the “% Inhibition” value was determined as 2% and the Z score is given as -0.27.
Taken in the same sequence, the figures for `Cc1cc(CN2CCC3CCC(C2)N3C(C)C)on1` (centres undefined) were -10% and 1.29.
For `Cc1sc2ncnc(N3CCN4CCC[C@H]4C3)c2c1C` the same measures were -5% and 0.64.
As for `CCc1c(C(=O)NC2CC2)c(=O)cc(C)n1C[C@H]1CCCN1CC`, the “% Inhibition” value was determined as 0% and the Z score was -0.06.
For `CN1CC[C@@](OC(=O)c2ccccc2)(c2ccccc2)C(C)(C)C1`, the “% Inhibition” value was -13% and the Z score is 2.13.
For `CN1N=C(c2c(O)n(C)c(=O)n(C)c2=O)C[C@H]1c1ccccc1` the same measures were -21% and 3.03.
As to `CN(C(=O)C1CC12CCCCC2)C1CN2CCC1CC2` (centres undefined), the “% Inhibition” value is -8% and the Z score worked out at 1.54.
Taken in the same sequence, the figures for `O=C(Oc1cccc(OC(=O)N2CCOCC2)c1)N1CCOCC1` were 5% and -0.99.
For `C=C(C)COc1ccc(NC(=O)N[C@H]2CN3CCC2CC3)cc1` the same measures were 4% and -0.69.
Taken in the same sequence, the figures for `CN(Cc1ccc2ccccc2n1)C(=O)CN1CC2(CCCC2)CC1=O` were -4% and 0.55.
In the case of `C1=COC(CNC(Cc2ccccn2)c2ccccc2)CC1` (centres undefined), the “% Inhibition” value is -6% and the Z score is 0.8.
For `C=CCCC(CN1C[C@H]2CC=CC[C@H]2C1)Oc1cc(CC)ncn1` (some centres undefined) the same measures were -27% and 2.39.
For `Cc1ccccc1-c1noc(=O)n1Cc1nc(C(C)C)no1` the same measures were -5% and 0.49.
For `CC(C)(c1ccccc1)c1noc([C@H]2C[C@H]3CC[C@@H]2N3)n1` the same measures were -1% and 0.16.
With `Nc1ccc2c(c1)CC1(C(=O)N(Cc3ccccc3)C(=O)N=C1O)C1CCCCCN21` (centres undefined), the “% Inhibition” value (2 µM) is 0% and -8%.
For the molecule `Clc1cnc(Cn2cnc3c2CCNC32CCOCC2)c(Cl)c1`, the “% Inhibition” value is given as -9% and the Z score is given as 1.51.
On to `CCc1ccc(Cn2nnc(C(=O)N[C@H]3CCCn4ncnc43)c2C)cc1`, for which the “% Inhibition” value is 4% and the Z score is -0.56.
For `CCCCn1c(C)c(CC(=O)N2CC[C@H](N(C)C)C2)c2c1CCCC2=O` the same measures were -13% and 1.85.
Turning to `CCCc1ccc(CN2CCN([C@H]3CN4CCC3CC4)CC2)o1`, the “% Inhibition” value is on record as -7% and the Z score is 0.66.
On to `Cc1ccc2occ(CC(=O)N3CCC[C@H](N(C)Cc4nccc(C)n4)C3)c2c1`, for which the “% Inhibition” value is 10% and the Z score is recorded as -1.27.
Taken in the same sequence, the figures for `Cc1ccc(CC(=O)N2CCN(Cc3cc(C)no3)CC2)cn1` were -10% and 1.51.
For `O=C(N[C@H]1CN2CCC1CC2)c1cc(Br)cc2nc[nH]c12` the same measures were -23% and 2.66.
`Cc1noc(C)c1C(=O)N1CC[C@@H]2CN(Cc3cccnc3)[C@@H]2C1`: the “% Inhibition” value was -20% and the Z score was 2.59.
Turning to `COc1ccccc1CNC(=O)Oc1ccccc1`, the “% Inhibition” value was -5% and the Z score was 0.66.
For `CCc1nc(CN2CCN3C(=O)OC[C@H]3C2)n[nH]1` the same measures were -11% and 2.06.
For `CCc1nc(NCC23COCCN2CCOC3)c2ccsc2n1` the same measures were -5% and 1.03.
For the molecule `O=C(c1cnc2ccccc2n1)N1CCC2(CC1)OCCO2`, the “% Inhibition” value was -6% and the Z score turned out to be 1.04.
With `O=C(NCCCn1ccnc1)C(Cl)(Cl)Cl`, the “% Inhibition” value was -5% and the Z score worked out at 1.
For `O=C(NC[C@H]1C[C@@H]2CC[N@]1C[C@@H]2CN1CCN(c2ccccn2)CC1)Nc1ccccc1` the same measures were 6% and -0.97.
For `Cc1cc(=O)c(C(=O)N[C@H]2COC[C@@H]2N2CCOCC2)cn1C` the same measures were -7% and 1.06.
In the case of `O=C(Nc1ccc2c(c1)OCCCO2)c1cnn(Cc2ccccc2)c1`, the “% Inhibition” value is reported as -2% and the Z score turned out to be 0.27.
Taken in the same sequence, the figures for `CO[C@@H](Cn1cc(C(N)=O)cn1)C1CCCC1` were -12% and 1.58.
For `CC(C)c1cc(NCc2cn(C(C)C)c(=O)[nH]c2=O)ncn1` the same measures were -14% and 1.56.
Taken in the same sequence, the figures for `O=C(Cn1nnc2ccccc21)Nc1ccc(-c2noc(=O)[nH]2)cc1` were -3% and 0.39.
As to `COc1ccccc1N1CCN2c3c(F)cccc3CC3(C(=O)NC(=O)N(c4ccccc4)C3=O)C2C1` (centres undefined), the “% Inhibition” value was determined as 0% and the Z score was 0.02.
For `O=C(O)[C@H]1CN(Cc2ccccc2)CC12CCC2` the same measures were -10% and 1.49.
In the case of `O=C(NCc1cccc(Cl)c1)c1cn(CCN2CCNCC2)nn1`, the “% Inhibition” value amounted to 11% and the Z score is -2.23.
For `C1CCN(C2(c3nc([C@H]4CCOC4)no3)CCCCC2)CC1` the same measures were -1% and 0.16.
Taken in the same sequence, the figures for `C[C@H](OC(=O)c1ccc2cn[nH]c2c1)C(=O)Nc1ccc(C#N)c(Cl)c1` were 3% and -0.37.
Taken in the same sequence, the figures for `C[C@H](NC(=O)N1CCN2CCC1CC2)c1ccc(OC(F)F)cc1` were -3% and 0.37.
Turning to `COc1c(Br)cccc1CCNC1CCOC1C` (centres undefined), the “% Inhibition” value was -8% and the Z score came out at 1.26.
Regarding `CC(C)Oc1ccccc1-c1ccc2c(c1)CNCC2`, the “% Inhibition” value is 10% and the Z score is -0.98.

Source of the values: ChEMBL document CHEMBL4888484, “Replenishing the malaria drug discovery pipeline: Screening and hit evaluation of the MMV Hit Generation Library 1 (HGL1) against asexual blood stage Plasmodium falciparum ,using a nano luciferase reporter read-out” (2022).
